According to PubChem BioAssay AID463173 (ICCB-Longwood Screening Facility, Harvard Medical School, 2010):
Out of some 52,000 compounds screened, about 1,700 (3.3%) were called active. Cut-off read from the data, not from the text of the source: active = survival mostly below about 52% (no sharp cut-off); inactive = mostly above about 56%. The list shows a part of the results.

Tested on: Wild type
Assay: S. aureus survival, RN4220 and DeltatarO strains – OD600, teichoic acid synthesis inhibitors, primary screen (AID 463173)
Settings: S. aureus RN4220 wild type/DeltatarO growth, OD600, 18 h, active compounds read low, screened at 18.75 µg/mL (by protocol)

SMILES	survival
Cc1cccc(C(=O)N2CCc3cc(CNC(=O)c4cc5ccccc5[nH]4)ccc32)c1	inactive: 72%
CCn1nc(C)c(CCN(C)C(=O)Nc2cccc(Cl)c2C)c1C	inactive: 79%
Cc1ccc(CNC(=O)C(C)n2c(=O)cc(C(F)(F)F)c3c(C)nn(C)c32)cc1 (stereo not given)	inactive: 76%
COc1ccc(C(=O)NCC(C)C)c(OC)c1	inactive: 111%
CCS(=O)(=O)N1CCc2cc(C(=O)NCc3ccccc3OC)ccc21	inactive: 79%
CCOc1ccc(CCNC(=O)C2CCCN(S(=O)(=O)N(C)c3ccc(F)cc3)C2)cc1 (stereo not given)	inactive: 87%
Cc1nnc(SCC(=O)N(C2CCCCC2)C2CCCCC2)[nH]c1=O	inactive: 117%
O=C(NCc1ccccc1)C(=O)Nc1c2c(nn1-c1ccc(F)cc1)CSC2	inactive: 82%
C1CCC(N2CCN(C3CCCC3)CC2)C1	inactive: 104%
COc1cccc(NC(=O)C2CCN(c3ccc(Sc4ccc(C)cc4)nn3)CC2)c1	inactive: 82%
CCn1cc(CNC(=O)c2cc(-c3ccc(C)cc3)nc3ccc(Br)cc23)c(C)n1	inactive: 81%
COc1cccc(NC(=O)C2CCC(CNS(=O)(=O)c3ccc4c(c3)CCCC(=O)N4)CC2)c1 (stereo not given)	inactive: 71%
Cc1ccccc1-c1nc2scc(CCNC(=O)c3ccco3)n2n1	inactive: 82%
CCc1ccc2oc(-c3ccc(C)c(NC(=O)/C=C/c4ccco4)c3)nc2c1	inactive: 75%
Clc1ccccc1OCCSc1nnc(-c2cccs2)o1	inactive: 65%
O=C(CSc1nc(=O)n(Cc2ccco2)c2c1CCC2)NCc1ccccc1	inactive: 72%
N#Cc1c(C(F)(F)F)cc(=O)n2c1[nH]c1ccccc12	inactive: 44%
COc1ccc(N2CCN(C(=O)CSc3nnc4c5ccccc5n(CC(=O)O)c4n3)CC2)cc1	inactive: 101%
Cc1sc2ncn(CC(=O)N3CCN(c4ccccc4F)CC3)c(=O)c2c1S(=O)(=O)N1CCC(C)CC1	inactive: 91%
Cc1cccc(OCCSc2nnc(-c3cccs3)o2)c1	inactive: 82%
Cc1ccc2nc(/C(C#N)=C/c3ccccc3F)[nH]c2c1	inactive: 46%
O=C(NC1CCCC1)c1ccc2c(=O)n(Cc3ccccc3)c(SCc3ccccc3F)nc2c1	active: -3%
COc1ccc(Cl)cc1-n1cc(-c2ccccc2)nc1SCC(=O)Nc1ccc(C)cc1	inactive: 91%
COc1ccccc1CNC(=O)C1CCN(c2nc3ccc(C)cc3[nH]2)CC1	inactive: 73%
CCc1ccc(CNC(=O)CCCn2ccc3cc(S(=O)(=O)N4CCCC4)ccc32)cc1	inactive: 63%
